The text below walks through data of patent US7361680B2, “Indole compounds useful for the treatment of cancer” (The Regents of the University of California, priority 1999, dated 2008).

As a reminder, the pEC50 is the EC50 on a negative log10 scale, so that one unit is a factor of ten. A low value points to a large EC50.

pEC50: −log10 of the molar value.

The first assay has as its system primary CLL cells. The assay can be described thus: Flow cytometry apoptosis assay (DiOC6/PI), primary CLL cells. The note with it: Homo sapiens, CLL cell, 48 hours, tested at 100, 250, 500, 750 μM. The format is cell-based. (In general: A flow cytometer gives signals particle by particle.)
In turn, `CCc1cccc2c3c([nH]c12)C(CC)(CC)OCC3` [Compound 5, 1,1,8-Triethyl-1,3,4,9-tetrahydropyrano[3,4-b]indole] showed a pEC50 of 3.30 to 3.60.

Turning to `CCc1cccc2c3c([nH]c12)C(CC)(CCOC(C)=O)OCC3` (stereo not shown) [Compound 10, Acetic acid-2-(1,8-diethyl-1,3,4,9-tetrahydropyrano[3,4-b]indol-1-yl)-ethyl ester], the pEC50 is 3.30 to 3.60. Consider `CCc1cccc2c3c([nH]c12)C(CC)(CCOC)OCC3` (stereo not shown) [Compound 2, 1,8-Diethyl-1-(2-methoxyethyl)-1,3,4,9-tetrahydropyrano[3,4-b]indole], for which the pEC50 was 3.30 to 3.60. `CCc1cccc2c3c([nH]c12)C(CC)(CC(C)O)OCC3` (stereo not shown) [Compound 12, 1-(1,8-Diethyl-1,3,4,9-tetrahydropyrano[3,4-b]indol-1-yl)-propan-2-ol]: the pEC50 was 3.60 to 4.00. Compound `CCc1cccc2c3c([nH]c12)C(CC)(CC(C)=O)OCC3` (stereo not shown) [Compound 13, 1-(1,8-Diethyl-1,3,4,9-tetrahydropyrano[3,4-b]indol-1-yl)-propan-2-one] gave a pEC50 of 3.30 to 3.60.

For the compound `CCc1cccc2c3c([nH]c12)C(CC)(CCOCSC)OCC3` (stereo not shown) [Compound 9, 1,8-Diethyl-1-(2-methylsufanylmethoxyethyl)-1,3,4,9-tetrahydropyrano[3,4-b]indole], the pEC50 is roughly 3.60.

`CCc1cccc2c3c([nH]c12)C(CC)(CC(O)O)OCC3` (stereo not shown) [Compound 11, 2-(1,8-Diethyl-1,3,4,9-tetrahydropyrano[3,4-b]indol-1-yl)-ethane-1,1-diol]: the pEC50 is 3.30 to 3.60. In turn, `CCc1cccc2c3c([nH]c12)C(CC)(CCO)OCC3` (stereo not shown) [Compound 1, 2-(1,8-Diethyl-1,3,4,9-tetrahydropyrano[3,4-b]indol-1-yl)-ethanol] showed a pEC50 of 3.60 to 4.00. `CCc1cccc2c3c([nH]c12)C(CC)(CC=N)OCC3` (stereo not shown) [Compound 7, 2-(1,8-Diethyl-1,3,4,9-tetrahydropyrano[3,4-b]indol-yl)-ethylideneamine] had a pEC50 of 3.30 to 3.60.

`CCc1cccc2c3c([nH]c12)C(CC)(CC=O)OCC3` (stereo not shown) [Compound 8, (1,8-Diethyl-1,3,4,9-tetrahydropyrano[3,4-b]indol-1-yl)-acetaldehyde] showed a pEC50 greater than 4.00. `CCc1cccc2c3c([nH]c12)C(CC)(CC(N)=O)OCC3` (stereo not shown) [Compound 6, 2-(1,8-Diethyl-1,3,4,9-tetrahydropyrano[3,4-b]indol-1-yl)-acetamide] gave a pEC50 of 3.60 to 4.00. `CCc1cccc2c3c([nH]c12)[C@@](CC)(CC(=O)O)OCC3` [R-etodolac] had a pEC50 of 3.60 to 4.00. For the compound `CCc1cccc2c3c([nH]c12)C(CC)(CCCl)OCC3` (stereo not shown) [Compound 4, 1-(2-Chloroethyl)-1,8-diethyl-1,3,4,9-tetrahydropyrano[3,4-b]indole], the pEC50 is greater than 4.00. As for `CCc1cccc2c3c([nH]c12)C(CC)(CCF)OCC3` (stereo not shown) [Compound 3, 1,8-Diethyl-1-(2-fluoroethyl)-1,3,4,9-tetrahydropyrano[3,4-b]indole], the pEC50 was 3.30 to 3.60.

The next assay has as its system PPAR-γ. The assay can be described thus: PPAR-γ reporter gene (luciferase) assay in transfected RAW264.7 cells. Type of assay: cell-based. The note with it: 24 hours, FIG. 13. (A reporter such as luciferase makes a cellular process visible.)
For the compound `CCc1cccc2c3c([nH]c12)[C@](CC)(CC(=O)O)OCC3` [S-etodolac], the “activation of a PPAR-γ reporter gene construct (luciferase activity)” value is given as “activated”.

For the compound `CCc1cccc2c3c([nH]c12)[C@@](CC)(CC(=O)O)OCC3` [R-etodolac], the “activation of a PPAR-γ reporter gene construct (luciferase activity)” value is reported as “activated”.
